Experimental data from the supplement of paper PMC10126150.
Sequences with one replicate were seen in a single cluster, so their values are uncertain.

system: ATP; assay: switch fluorescence ratio, 500 uM ATP over buffer (Cy3 cluster intensity, sum of 5 cycles each) (fold (ratio)); higher = stronger signal-on switching upon ATP binding; sequences stand for … in TCGTCGGCAGCGTCAGATGTGTATAAGAGACAGTTTTTTTTTTTTTTTTTTTTTTTTT…TC; conditions: aptamer strand: ATP DNA aptamer (quencher-CACCTGGGGGAGTATTGCGGAGGAAGG + anchor), 100 nM annealed; ATP concentration: 500 uM; one replicate
Summary of the method: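 Values give the fluorescence ratio for each switch-domain sequence, averaged from per-cluster ratios of summed target-cycle to summed buffer-cycle Cy3 intensity. The Cy3-labelled switching-strand clusters sat on a modified Illumina MiSeq flow-cell, were annealed to 100 nM quencher-labelled ATP aptamer, and were imaged in selection buffer, then after 15 min with 500 uM ATP at 22 °C. Five cycles ran with NaOH stripping and re-annealing between them, and clusters outside 100-1000 RFU were excluded.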
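Also: ATP exposure 15 min at 22 °C before imaging.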

Sequence	switch fluorescence ratio
TGGGTAGCGG	0.962
TGGGTCTAG	1
TGGGTCTTCT	0.952
TGGGTGTGCG	1
TGGGTTAGAA	0.986
TGGGTTGTT	0.971
TGGGTTTAGA	1
TGGTAACACA	1.06
TGGTAAGAAA	0.982
TGGTACACGG	0.99
TGGTACAGTT	0.983
TGGTACATAC	1.36
TGGTACGAAC	1.27
TGGTACGGAA	1.13
TGGTACTACT	1.04
TGGTACTTCA	1.04
TGGTAGAAAA	0.962
TGGTAGAGTC	0.995
TGGTAGATCG	1.04
TGGTAGTATA	0.995
TGGTATACCC	1.02
TGGTATGAAG	1.08
TGGTATTCTG	0.987
TGGTCAAAAC	1.05
TGGTCAATGT	0.958
TGGTCAGGCC	0.994

Sequence	switch fluorescence ratio
TGGTCATACC	0.983
TGGTCCAACC	1.04
TGGTCCGAAG	1.05
TGGTCCGGTA	1
TGGTCTACC	1.02
TGGTCTACGG	1.02
TGGTCTAGAT	0.982
TGGTCTATAT	1.04
TGGTCTGAC	1.03
TGGTGCAATA	2.19
TGGTGCGGTC	1.03
TGGTGGAACC	0.977
TGGTGGGAAC	0.957
TGGTGGGAT	1.02
TGGTGGGCTT	1.01
TGGTTAATGA	0.976
TGGTTAATTG	1.06
TGGTTACGTG	1.03
TGGTTATATA	1.04
TGGTTATCCC	1.47
TGGTTCGATG	0.981
TGGTTCGGAT	0.979
TGGTTTCGT	0.949
TGGTTTGAAA	1.04
TGGTTTGAGT	1.02
TGGTTTGTTC	1.01

Sequence	switch fluorescence ratio
TGTAAATGAC	1.02
TGTAACCATG	0.948
TGTAACTTAC	1.25
TGTAAGAAGA	1
TGTAAGCGGG	1.02
TGTAATCAG	0.966
TGTAATTTTA	0.983
TGTACATATA	0.985
TGTACTGTGA	1.03
TGTACTTACT	1.23
TGTACTTTGC	1.08
TGTACTTTTG	1.04
TGTAGGATGG	1.02
TGTAGGCTTA	1.02
TGTAGGGGAG	0.996
TGTAGGGGCC	1.11
TGTAGTTACC	1.02
TGTAGTTCCG	0.931
TGTATCACAG	1.01
TGTATGAAA	1.04
TGTATGCTAC	1.08
TGTATGGCCA	0.957
TGTATTCACG	1.02
TGTATTGCCT	1.01
TGTATTTAGC	1.01
TGTCAACGGG	0.969

Sequence	switch fluorescence ratio
TGTCAATCAT	1.04
TGTCAGGTTT	0.979
TGTCAGTGTT	0.988
TGTCCACCGC	2.41
TGTCCCCCTT	1.73
TGTCCCGGGA	0.982
TGTCGAAATA	0.977
TGTCGAATGT	0.97
TGTCGACCGA	0.994
TGTCGGCCGT	0.961
TGTCGGCGGC	1.05
TGTCTATATA	0.995
TGTCTCAAC	1.04
TGTCTGCAGA	1.01
TGTCTTGTCA	0.982
TGTCTTTTGC	0.985
TGTGAAAATA	0.966
TGTGAATACG	1.02
TGTGAATTTT	1.03
TGTGACGTCG	1.06
TGTGAGCCCC	1
TGTGATAATA	1.05
TGTGATGTTT	0.999
TGTGATTGCT	0.931
TGTGCGTAAG	1.04
TGTGCTAATA	0.965

Sequence	switch fluorescence ratio
TGTGGAATC	1.01
TGTGGAATGG	0.97
TGTGGAGAAC	1.06
TGTGGAGGCT	0.921
TGTGGCAGCG	1.1
TGTGGCGCCG	0.996
TGTGGCTGAT	0.983
TGTGGGTCCC	1.01
TGTGGGTCTC	0.994
TGTGGTAGG	1.05
TGTGTACATG	1.01
TGTGTATG	1.03
TGTGTCAACC	0.988
TGTGTCCTTG	1.01
TGTGTGCATA	0.975
TGTGTGTCAA	0.975
TGTGTGTGGC	1.05
TGTGTTAACG	1.01
TGTGTTCGGA	0.998
TGTTAAGTC	0.986
TGTTAAGTGG	0.96
TGTTAATCGG	0.983
TGTTACCGCC	1.21
TGTTACGGTA	1.07
TGTTAGGCGC	1.03
TGTTATGGG	0.972

Sequence	switch fluorescence ratio
TGTTATTGCC	0.972
TGTTATTTAT	0.971
TGTTCACAAT	1.06
TGTTCATGAG	0.979
TGTTCATGGT	0.978
TGTTCCCAGA	0.969
TGTTCCCTTT	0.988
TGTTCGCGGA	1
TGTTCTAATG	1.01
TGTTCTCGT	0.947
TGTTCTTTCG	1
TGTTGAATGA	0.959
TGTTGACGAG	0.996
TGTTGACGTG	0.989
TGTTGATTTC	1.03
TGTTGCCAGG	1.02
TGTTGCTCAG	0.987
TGTTGGCTAT	0.975
TGTTGGGCAA	1.05
TGTTGTCGAC	1.01
TGTTGTCGCA	1
TGTTGTGAG	1
TGTTTACTCC	1.16
TGTTTATTAA	1.01
TGTTTCGTC	1.01
TGTTTCTGCA	1.1

Sequence	switch fluorescence ratio
TGTTTGAGCT	1.02
TGTTTGGTCC	1.01
TGTTTTCGTT	0.996
TGTTTTGGA	0.935
TGTTTTGGAT	0.983
TTAAAACTGT	1.1
TTAAAAGACC	0.983
TTAAACGCAC	1.77
TTAAAGTCGC	0.977
TTAAATCAG	1.01
TTAAATCGCC	0.983
TTAAATTAAA	0.957
TTAAATTGCA	0.995
TTAACGAGGG	1
TTAACGCCGA	0.977
TTAACGCGCC	1.11
TTAACTAGG	0.981
TTAACTCTA	1.01
TTAACTGTCT	0.972
TTAACTTGTT	1.02
TTAAGACGAG	0.981
TTAAGACGTG	0.984
TTAAGAGCCA	0.974
TTAAGATCGG	0.917
TTAAGATCGT	0.995
TTAAGATTGT	0.999

Sequence	switch fluorescence ratio
TTAAGCCACA	1.05
TTAAGCCCAC	1.16
TTAAGCCTAG	1.05
TTAAGCTGTA	1.1
TTAAGGAAA	0.964
TTAAGGCCTA	1.01
TTAAGGCGG	1.01
TTAAGGGTGA	0.993
TTAAGGTGAT	1.1
TTAATACCGA	1.02
TTAATACGTT	1.05
TTAATCATT	0.998
TTAATCCGTT	1.02
TTAATCGACT	1.03
TTAATCGCTA	1.04
TTAATCTCGC	1.01
TTAATGGCCC	0.986
TTAATGGCTG	0.979
TTAATGGGAA	0.967
